Publication PMC4336329 (PLoS ONE, 2015)
The whole screen tested about 310,000 compounds, of which about 2,200 (0.71%) showed an effect of 50% or more. The effect is printed as a negative number. This is one part of the list.

target: human ether-à-go-go-related gene (hERG) potassium channel (human, UniProt Q12809); test: primary screen, population patch clamp on CHO cells stably expressing hERG
Sequence (Q12809 whole entry, looked up): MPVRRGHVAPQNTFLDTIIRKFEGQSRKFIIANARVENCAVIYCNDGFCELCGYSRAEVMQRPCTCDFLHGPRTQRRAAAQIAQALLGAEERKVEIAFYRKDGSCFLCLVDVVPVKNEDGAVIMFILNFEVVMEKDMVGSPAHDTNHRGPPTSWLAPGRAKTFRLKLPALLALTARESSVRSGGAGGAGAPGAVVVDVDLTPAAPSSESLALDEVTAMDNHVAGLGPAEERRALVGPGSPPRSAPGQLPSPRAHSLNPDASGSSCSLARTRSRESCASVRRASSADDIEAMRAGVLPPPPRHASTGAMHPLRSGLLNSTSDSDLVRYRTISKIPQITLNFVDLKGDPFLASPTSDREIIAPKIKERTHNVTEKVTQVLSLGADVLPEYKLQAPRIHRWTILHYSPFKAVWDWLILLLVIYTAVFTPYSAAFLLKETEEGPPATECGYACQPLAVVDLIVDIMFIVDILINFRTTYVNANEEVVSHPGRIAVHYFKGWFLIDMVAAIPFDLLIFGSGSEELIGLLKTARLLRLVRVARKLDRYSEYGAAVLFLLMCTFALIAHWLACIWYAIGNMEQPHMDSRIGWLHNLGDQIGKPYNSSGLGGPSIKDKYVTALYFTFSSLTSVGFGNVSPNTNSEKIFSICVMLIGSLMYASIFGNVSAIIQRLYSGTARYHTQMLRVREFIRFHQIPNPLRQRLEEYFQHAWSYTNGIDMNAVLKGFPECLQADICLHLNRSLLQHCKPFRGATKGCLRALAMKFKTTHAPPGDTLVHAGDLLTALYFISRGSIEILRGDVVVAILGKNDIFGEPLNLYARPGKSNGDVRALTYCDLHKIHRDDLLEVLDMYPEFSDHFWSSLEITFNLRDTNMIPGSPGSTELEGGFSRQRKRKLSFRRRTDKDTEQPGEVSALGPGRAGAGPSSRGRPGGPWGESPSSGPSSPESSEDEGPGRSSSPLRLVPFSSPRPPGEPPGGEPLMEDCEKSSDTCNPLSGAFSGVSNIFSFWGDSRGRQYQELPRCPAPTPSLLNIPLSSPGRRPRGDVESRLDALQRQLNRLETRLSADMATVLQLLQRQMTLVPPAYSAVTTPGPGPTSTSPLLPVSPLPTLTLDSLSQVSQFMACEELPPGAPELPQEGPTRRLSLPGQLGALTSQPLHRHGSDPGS

SMILES	hERG current change (%, negative = inhibition) at 1uM
O=S(=O)(CC(O)COc1ccc(Br)cc1)c1ccccc1 (stereo not drawn)	10.4%
O=C(COc1ccc(S(=O)(=O)N2CCCCC2)cc1Cl)N1CCOCC1	13.5%
CN=c1scc(C)n1/N=C/c1ccc(O)cc1	10.3%
CC(C)OC(=O)Nc1ccc(-c2ccc(NC(=O)OC(C)C)cc2Cl)c(Cl)c1	16.4%
N#C/C(=C\c1ccc(F)cc1)C(=O)NC1CCS(=O)(=O)C1 (stereo not drawn)	13.2%
COc1ccc(-c2nc(=S)c3c([nH]2)Oc2ccc(C)cc2C3)cc1O	13%
COC(=O)C1=C(c2c(C)noc2C)C[C@@H]2CC[C@H]1N2C(=O)NCCOc1ccccc1Cl	13.8%
COc1ccc(N(C)S(=O)(=O)c2ccc(Cl)c(C(=O)NCC(C)(C)N3CCOCC3)c2)cc1	-21.1%
CCN1C(=O)N(C)[C@@H](c2ccccc2)C(C(C)=O)=C1C	22.1%
N/C(=N\NS(=O)(=O)c1ccccc1Cl)c1ccccn1	14.6%
COCCn1c(=O)[nH]c2cc(C(=O)NCCN3CCN(c4ccc(OC)cc4)CC3)ccc2c1=O	11.4%
COc1ccc(C2C(C(=O)NC(C)C)c3ccccc3C(=O)N2C)cc1OC (stereo not drawn)	8.64%
COc1ccc(S(=O)(=O)N2CCN(C(=O)c3oc4ccccc4c3C)CC2)cc1	14.4%
COc1ccc(OCC(O)CN(C)C(=O)C(C)Oc2ccccc2)cc1 (stereo not drawn)	13.2%
CCCN1CCN(C(=O)c2oc3ccccc3c2NC(=O)COc2ccc(OC)cc2)CC1	-46.3%
Cc1nnc2c(NCCc3ccccc3)nc3ccccc3n12	10.1%
CC(=O)C[C@H](O)CC(=O)[C@@H]1OC(=O)CCCCCCc2ccccc21	9.69%
CC(CCC(=O)O)C1CC[C@H]2C3CCC4CC(=O)CCC4(C)[C@H]3CC(=O)C12C (stereo partly drawn)	1.89%
Cc1ccc(C)c(SCC(=O)OCC(=O)N2CC(C)OC(C)C2)c1 (stereo not drawn)	-0.0748%
CCCCN(CC)Cc1ccc(CNC(=S)Nc2c(C)cc(C)cc2C)o1	-9.61%
O=C(c1ccc(Br)cc1)N(Cc1ccco1)C1CCS(=O)(=O)C1 (stereo not drawn)	11.2%

SMILES	hERG current change (%, negative = inhibition) at 1uM
O=C(CN1CCN(C(=O)c2c(F)cccc2F)CC1)Nc1ccccc1F	0.0409%
O=C(Nc1ccc2c(c1)OCCO2)c1cnccn1	-5.98%
COc1cccc(N2CCN(c3nc(C)cc(=O)[nH]3)CC2)c1	14.4%
CC(C)C1COC(c2cccc3ccccc23)=N1 (stereo not drawn)	-4.12%
O=C(CSc1nncs1)NCCNC(=O)CSc1nncs1	17.6%
COc1ccccc1NS(=O)(=O)c1cccc(C(=O)NCC(C)(C)N2CCOCC2)c1	4.67%
C=CCC1(CC=C)CCCN1C(=O)CC1C(=O)NCCN1Cc1cc(OC)cc(OC)c1 (stereo not drawn)	10.5%
O=C(COc1ccccc1Cl)NNC(=O)Cn1[nH]c(=O)c2ccccc2c1=O	5.12%
Cc1cccc(NC(=O)c2ccc3nsnc3c2)c1C	20.7%
NC(=O)c1ccsc1NC(=O)COC(=O)COc1ccccc1[N+](=O)[O-]	11.4%
COc1cc(-c2cc(C(=O)Nc3ccncc3)c3ccccc3n2)cc(OC)c1OC	3.21%
CCOC(=O)c1c(NC(=O)C2C3C=CC(C3)C2C(=O)O)sc2c1CCC(C)C2 (stereo not drawn)	9.85%
Cc1[nH]nc2c1C(c1ccc(O)cc1)C1=C(CC(C)(C)CC1=O)N2 (stereo not drawn)	14.6%
Nc1ncnc(Sc2ccc(Cl)cc2)c1[N+](=O)[O-]	11.9%
O=C(O)C1OC(Oc2c(-c3ccc(O)c(O)c3)oc3cc(O)cc(O)c3c2=O)C(O)C(O)C1O (stereo not drawn)	13.1%
Cc1csc(SCC(=O)Nc2ncc(Cl)c(C)c2Cl)n1	8.8%
CN(C)S(=O)(=O)c1ccc(NC(=O)C2CC3C=CC2C3)cc1 (stereo not drawn)	5.77%
COc1cc(Br)cc2cc(C(=O)N3CCN(C(=O)c4ccco4)CC3)c(=O)oc12	-9.36%
O=C(NCCc1ccccc1)C1CCCN(S(=O)(=O)c2cccc3nsnc23)C1 (stereo not drawn)	16.9%
CC(=O)c1sc(NC(=O)c2cc3c(C)nn(-c4ccccc4)c3s2)nc1C	16.1%
Cc1cc(C)n(C(=O)c2ccc(C)c(F)c2F)n1	13.2%
